Among the data in paper PMC12199426 are binding values, retold here.

Protein sequences, listed by entry. Tags and fused reporters are not part of them.
UniProt O35286: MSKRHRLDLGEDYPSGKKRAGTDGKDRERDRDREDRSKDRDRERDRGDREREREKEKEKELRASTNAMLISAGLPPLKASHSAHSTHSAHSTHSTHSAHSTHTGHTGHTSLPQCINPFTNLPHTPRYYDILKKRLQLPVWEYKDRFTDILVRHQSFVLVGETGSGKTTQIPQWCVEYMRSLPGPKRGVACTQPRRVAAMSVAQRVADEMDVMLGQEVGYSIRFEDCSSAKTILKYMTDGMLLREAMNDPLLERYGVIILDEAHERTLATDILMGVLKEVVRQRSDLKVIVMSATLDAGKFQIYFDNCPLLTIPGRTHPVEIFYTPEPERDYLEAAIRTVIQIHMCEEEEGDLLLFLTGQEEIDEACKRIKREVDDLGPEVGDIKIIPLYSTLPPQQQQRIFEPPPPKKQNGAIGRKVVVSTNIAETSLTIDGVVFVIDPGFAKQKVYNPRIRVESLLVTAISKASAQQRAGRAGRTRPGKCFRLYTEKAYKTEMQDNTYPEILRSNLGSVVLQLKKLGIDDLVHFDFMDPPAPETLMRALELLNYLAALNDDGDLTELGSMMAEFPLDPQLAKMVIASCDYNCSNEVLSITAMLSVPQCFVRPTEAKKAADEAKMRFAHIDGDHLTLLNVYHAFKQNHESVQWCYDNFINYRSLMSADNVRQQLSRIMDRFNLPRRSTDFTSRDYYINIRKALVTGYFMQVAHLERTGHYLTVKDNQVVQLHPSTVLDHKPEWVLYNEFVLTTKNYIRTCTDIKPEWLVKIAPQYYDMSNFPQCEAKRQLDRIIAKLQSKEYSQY
UniProt Q60668: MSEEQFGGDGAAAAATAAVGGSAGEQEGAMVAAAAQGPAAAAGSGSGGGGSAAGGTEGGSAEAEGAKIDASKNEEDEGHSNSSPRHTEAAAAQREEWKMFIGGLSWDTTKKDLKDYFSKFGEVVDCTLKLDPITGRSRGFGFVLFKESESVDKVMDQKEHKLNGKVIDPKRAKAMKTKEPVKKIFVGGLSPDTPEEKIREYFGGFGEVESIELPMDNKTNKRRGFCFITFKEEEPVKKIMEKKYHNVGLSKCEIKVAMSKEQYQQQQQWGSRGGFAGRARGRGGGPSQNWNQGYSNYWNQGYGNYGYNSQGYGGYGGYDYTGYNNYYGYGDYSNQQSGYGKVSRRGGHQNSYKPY

Assay [1] has as its target T1, Breast cancer amplified sequence 2 (Bcas2) (mouse (endogenous in splenic B cells)) (UniProt Q9D287).
T1 sequence: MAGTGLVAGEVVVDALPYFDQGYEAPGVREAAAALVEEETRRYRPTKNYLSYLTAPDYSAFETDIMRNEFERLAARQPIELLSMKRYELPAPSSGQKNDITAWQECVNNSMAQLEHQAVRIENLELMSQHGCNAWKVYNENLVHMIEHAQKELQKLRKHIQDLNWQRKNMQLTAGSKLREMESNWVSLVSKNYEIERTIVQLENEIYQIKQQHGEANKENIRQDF
Briefly: co-IP; extracts of LPS-activated mouse splenic B cells; Bcas2 antibody overnight at 4°C, protein A/G beads, western blotting. (In western blotting, separated proteins are transferred to a membrane and probed.)

In assay [2] the target is T1, Breast cancer amplified sequence 2 (Bcas2) (mouse (endogenous in splenic B cells)). The experiment in a line: condition: only splenic B cells without LPS stimulation; co-IP; extracts of mouse splenic B cells without LPS stimulation ex vivo; Bcas2 antibody, protein A/G beads, western blotting.
Assay [3] concerns the target T2, full-length Bcas2 with FLAG tag (UniProt Q9D287).
T2 sequence: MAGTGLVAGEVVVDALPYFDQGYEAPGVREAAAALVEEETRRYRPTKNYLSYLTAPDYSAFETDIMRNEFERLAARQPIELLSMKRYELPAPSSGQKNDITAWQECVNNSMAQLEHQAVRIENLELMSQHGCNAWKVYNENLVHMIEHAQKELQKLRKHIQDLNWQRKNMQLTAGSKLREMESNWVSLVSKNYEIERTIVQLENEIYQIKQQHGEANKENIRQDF
The experiment in a line: co-IP; 293T cells transfected with FLAG-tagged Bcas2 (full length or coiled-coil deletions) and SRSF7-HA; IP by the FLAG tag.

These are yes or no findings as the source states them, for the method shown. In cells and extracts the contact can be indirect. Some entries that bind do so weakly or less than the wild type. For part of these data: Where a sequence is shown, tags or fusion partners need not be part of it.

Regarding DHX15 (from UniProt O35286 1-795), the binding result was “binds” in assay [1] and “no binding” in assay [2].

As for HNRNP D (from UniProt Q60668 1-355), the binding entry in assay [1] was “binds”.

For HNRNP K (from UniProt P61979 1-463), the binding result in assay [1] is recorded as “binds”.

B1: SRSF7 (protein, UniProt Q8BL97 1-267)
chain: MRSSARGRPLQAATAFFLSLFFFLRRFERGFWLWGGDSETKVYVGNLGTGAGKGELERAFSYYGPLRTVWIARNPPGFAFVEFEDPRDAEDAVRGLDGKVICGSRVRVELSTGMPRRSRFDRPPARRPFDPNDRCYECGEKGHYAYDCHRYSRRRRSRSRSRSHSRSRGRRYSRSRSRSRGRRSRSASPRRSRSVSLRRSRSASLRRSRSGSIIGSRYFQSRSRSRSRSRSISRPRSSRSKSRSPSPKRSRSPSGSPHRSASPERMD
With B1, the binding entry in assay [1] is “binds”.

B2: SRSF7-HA (protein, UniProt Q8BL97 1-267)
chain: MRSSARGRPLQAATAFFLSLFFFLRRFERGFWLWGGDSETKVYVGNLGTGAGKGELERAFSYYGPLRTVWIARNPPGFAFVEFEDPRDAEDAVRGLDGKVICGSRVRVELSTGMPRRSRFDRPPARRPFDPNDRCYECGEKGHYAYDCHRYSRRRRSRSRSRSHSRSRGRRYSRSRSRSRGRRSRSASPRRSRSVSLRRSRSASLRRSRSGSIIGSRYFQSRSRSRSRSRSISRPRSSRSKSRSPSPKRSRSPSGSPHRSASPERMD
With B2, the binding entry in assay [3] is “binds”.
